According to patent publication US5892029A, “3-hydroxy-2(1H)-pyridinone chelating agents” (priority 1997, dated 1999):
The name of at least one read-out is uncertain.

What was measured:
[1] = Promoting excretion of 238Pu(IV) in mice by injected ligands (Table 3); assay type: in vivo; settings: 30 μmol/kg i.p. at 1 h after Pu; for 238Pu in liver at 24 h / 238Pu in skeleton at 24 h / 238Pu in soft tissue at 24 h / 238Pu in whole body at 24 h: mean ± SD; for 238Pu excreta: feces and GI contents / 238Pu excreta: urine 0-24 h / 238Pu in kidneys at 24 h: pooled samples
From the text: (§1) Animal studies were completed using methods detailed in Radiation Protection Dosimetry, 1994, 53, 305: P. W. Durbin et al., "In Vivo Chelation of Am(III), Pu(IV), Np(V) and U(VI) in Mice by TREN-(Me-3,2-HOPO)"; Radiation Protection Dosimetry, 1989, 17, 351: P. W. Durbin et al., "Removal of ^238 Pu(IV) from Mice by Polycatechoylate, -Hydroxamate or -Hydroxypyridinonate Ligands"; Radiation Research, 1984, 99, 85: P. W. Durbin et al., "Specific Sequestering Agents for the Actinides . . . "; Radiation Research, 1984, 99, 106: P. W. Durbin et al., "Removal of Pu and Am from Beagles and Mice . . . "; Radiation Research, 1980, 81, 170: R. D. Lloyd et al., and P. W. Durbin et al., "Specific Sequestering Agents for the Actinides . . . ". The foregoing articles are hereby incorporated by reference.
(§2) Radionuclides used in the animal studies came from a variety of sources. The ^238 Pu(IV) citrate and ^241 Am(III) citrate solutions were prepared for animal injection by 8- to 10-fold dilution with 0.14M NaC1 (pH 4) of concentrated stock solutions (0.08M sodium citrate buffer) that had been held in frozen storage at Lawrence Berkeley Laboratory (hereinafter LBL) for several years. [The ^238 Pu(IV) was originally obtained from D. R. Atherton at the University of Utah Radiobiology Laboratory, Salt Lake City. The ^241 Am(III) solution had been obtained many years earlier from the LBL Actinide Chemistry group.]
The novel chelating agents of the present invention were tested for their effectiveness in promoting excretion of ^238 Pu(IV) in mice by injected ligands as follows. Mice, in groups of five, each received an intravenous injection of 1850 Bq^238 Pu(IV) in 0.2 mL of citrate buffer. One hour later, 30 μmol/kg of ligand was injected intraperitoneally in 0.5 mL of saline. The mice were killed 24 hours after the Pu injection, frozen, and dissected after partial thawing. The ^238 Pu in skeleton, soft tissues, and separated excreta was determined by counting the ^234 U L x-rays. Results of removal of ^238 Pu(IV) from mice by injected ligands are summarized in Table 3, which also includes data for CaNa3 -DTPA and other reference ligands and the Pu-injected controls. […] While in the case of multidentate 1,2-HOPO and catechoylamide chelating agents, octadentates are always better chelating agents than the correspond hexadentates and tetradentates.
^b Ligands were injected (30 μmol kg^-1, i.p.) at 1 h, and mic
were killed at 24 h after iv injection of ^238 Pu(IV) citrate.

[2] = Promoting excretion of 238Pu(IV) in mice by orally administered ligands (Table 4); assay type: in vivo; settings: 30 μmol/kg by gavage at 3 min after Pu; for 238Pu in liver at 24 h / 238Pu in skeleton at 24 h / 238Pu in soft tissue at 24 h / 238Pu in whole body at 24 h: mean ± SD; for 238Pu excreta: feces and GI contents / 238Pu excreta: urine 0-24 h / 238Pu in kidneys at 24 h: pooled samples
From the text: as §1, §2
The novel chelating agents of the present invention were tested for their effectiveness in promoting excretion of ^238 Pu(IV) by oral administration to mice as follows. Mice in groups of five, each received an intravenous injection of 1850 Bq ^238 Pu(IV) in 0.2 M]L of citrate buffer. Three minutes later, 30 μmol/kg of ligand was given by gavage in 0.5 ml of saline. The mice were killed 24 hours after the ^238 Pu(IV) injection, frozen, and dissected after partial thawing. The ^238 Pu(IV) in skeleton, soft tissues, and separated excreta was determined by counting the ^234 U L x-rays. Results of removal of ^238 Pu(IV) from mice by orally administered ligands are summarized in Table 4, which also includes data for the reference ligands, and the Pu-injected controls.
^b Ligands were given (30 μmole kg^-1, by gavage) at 3 min, an
mice were killed at 24 h after iv injection of ^238 Pu(IV) citrate.

## Cn1ccc(C(=O)NCCN(CCNC(=O)c2ccn(C)c(=O)c2O)CCN(CCNC(=O)c2ccn(C)c(=O)c2O)CCNC(=O)c2ccn(C)c(=O)c2O)c(O)c1=O [H(2,2)-Me-3,2-HOPO, N,N,N',N'-tetrakis[(3-hydroxy-1-methyl-2-oxo-1,2-dihydropyridin-4-yl)carboxamido-ethyl]-ethylenediamine]
[1]
  238Pu in liver at 24 h: 3.8 ± 1.1% of injected ^238 Pu
  238Pu in skeleton at 24 h: 11 ± 1.7% of injected ^238 Pu
  238Pu in soft tissue at 24 h: 2.8 ± 1.6% of injected ^238 Pu
  238Pu in whole body at 24 h: 19 ± 2.9% of injected ^238 Pu
  238Pu excreta: feces and GI contents: 45.3% of injected ^238 Pu
  238Pu excreta: urine 0-24 h: 36% of injected ^238 Pu
  238Pu in kidneys at 24 h: 1.3% of injected ^238 Pu
[2]
  238Pu in liver at 24 h: 7.6 ± 6.5% of administered ^238 Pu
  238Pu in skeleton at 24 h: 11 ± 4.6% of administered ^238 Pu
  238Pu in soft tissue at 24 h: 4.0 ± 2.1% of administered ^238 Pu
  238Pu in whole body at 24 h: 23 ± 11% of administered ^238 Pu
  238Pu excreta: feces and GI contents: 37.9% of administered ^238 Pu
  238Pu excreta: urine 0-24 h: 39% of administered ^238 Pu
  238Pu in kidneys at 24 h: 0.4% of administered ^238 Pu

## Cn1ccc(C(=O)NCCN(CCCN(CCNC(=O)c2ccn(C)c(=O)c2O)CCNC(=O)c2ccn(C)c(=O)c2O)CCNC(=O)c2ccn(C)c(=O)c2O)c(O)c1=O [H(3,2)-Me-3,2-HOPO, N,N,N',N'-tetrakis[(3-hydroxy-1-methyl-2-oxo-1,2-dihydropyridin-4-yl)carboxamido-ethyl]-propylenediamine]
[1]
  238Pu in liver at 24 h: 14 ± 6.1% of injected ^238 Pu
  238Pu in skeleton at 24 h: 10 ± 2.0% of injected ^238 Pu
  238Pu in soft tissue at 24 h: 2.4 ± 0.3% of injected ^238 Pu
  238Pu in whole body at 24 h: 28 ± 4.8% of injected ^238 Pu
  238Pu excreta: feces and GI contents: 52.1% of injected ^238 Pu
  238Pu excreta: urine 0-24 h: 19.5% of injected ^238 Pu
  238Pu in kidneys at 24 h: 1.2% of injected ^238 Pu
[2]
  238Pu in liver at 24 h: 13 ± 5.9% of administered ^238 Pu
  238Pu in skeleton at 24 h: 14 ± 6.7% of administered ^238 Pu
  238Pu in whole body at 24 h: 33 ± 13% of administered ^238 Pu
  238Pu excreta: feces and GI contents: 25.4% of administered ^238 Pu
  238Pu excreta: urine 0-24 h: 42% of administered ^238 Pu
  238Pu in kidneys at 24 h: 1.4% of administered ^238 Pu

## Cn1ccc(C(=O)NCCN(CCCCN(CCNC(=O)c2ccn(C)c(=O)c2O)CCNC(=O)c2ccn(C)c(=O)c2O)CCNC(=O)c2ccn(C)c(=O)c2O)c(O)c1=O [H(4,2)-Me-3,2-HOPO, N,N,N',N'-tetrakis[(3-hydroxy-1-methyl-2-oxo-1,2-dihydropyridin-4-yl)carboxamido-ethyl]-butylenediamine]
[1]
  238Pu in liver at 24 h: 29 ± 6.1% of injected ^238 Pu
  238Pu in skeleton at 24 h: 12 ± 2.9% of injected ^238 Pu
  238Pu in soft tissue at 24 h: 1.9 ± 1.0% of injected ^238 Pu
  238Pu in whole body at 24 h: 46 ± 8.5% of injected ^238 Pu
  238Pu excreta: feces and GI contents: 26.8% of injected ^238 Pu
  238Pu excreta: urine 0-24 h: 28% of injected ^238 Pu
  238Pu in kidneys at 24 h: 1.8% of injected ^238 Pu
[2]
  238Pu in liver at 24 h: 19 ± 4.9% of administered ^238 Pu
  238Pu in skeleton at 24 h: 15 ± 6.2% of administered ^238 Pu
  238Pu in soft tissue at 24 h: 1.8 ± 0.8% of administered ^238 Pu
  238Pu in whole body at 24 h: 37 ± 10% of administered ^238 Pu
  238Pu excreta: feces and GI contents: 10.1% of administered ^238 Pu
  238Pu excreta: urine 0-24 h: 52.4% of administered ^238 Pu
  238Pu in kidneys at 24 h: 1.3% of administered ^238 Pu
